According to the supplement of paper PMC11417369:
This is one part of the list.

Test system: PfSIP2 AP2 domain 1 (GST-tagged)
Test: gcPBM binding intensity (ln(normalized median fluorescence intensity)); higher = stronger DNA binding
Procedure, shortened: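 Alexa488 anti-GST antibody, scanned at 488 nm, detected GST-tagged P. falciparum DNA-binding domains that had been expressed in E. coli and incubated for 1 h on an Agilent 4 × 180k array. The array carried primer-extended double-stranded 36-bp intergenic genomic probes and negative controls. Binding intensity is the highest Masliner-normalised natural-log median intensity across replicate spots of either orientation of each probe.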

Sequence | gcPBM binding intensity (ln)
CATATTAAAAATACATGTACATATATATTTAATATA [XGTACX_site8580] | 7.15
GTTAAAATAATATTATGTACATATATATAAAAATAT [XGTACX_site8512] | 7.15
TATAAATATGTGTTTACACACAATAATGAATTAAAA [CACACA_site6555] | 6.76
GTTTGTAAATATTTTACACACATATTTATTTATATA [CACACA_site6632] | 6.73
AACCTCAAATACACAAGTACGTATAATAAGGAACAA [XGTACX_site4304] | 7.17
ATGGAAAAATGTATATATAAAATAAATATATTATAT [CACACA_negctrl_site1712] | 6.72
TACAGAAATTTATATATATATATATATATATATATA [XGTACX_negctrl_site209] | 9.26
AAATCAAAAACGTTTACACACATTCTTATTTAAATA [CACACA_site790] | 7.08
TGAGACATGAATGCAAGTACAAAAAGGAGAACAAAA [XGTACX_site6183] | 7.24
TACATATATTTTTTATGTACTTACTTGTGTGTTTAT [XGTACX_site5126] | 7.09
TTTTATAATTTCAAAGGATTCTTTAATATTATAAAT [CACACA_negctrl_site1812] | 6.7
AAATTATATATAATAAATAATTTCTTTTTCTAAAAG [CACACA_negctrl_site8] | 6.73
AAAAAAAAAAAAAAAAGTACACACTTTTGCCTACAT [XGTACX_site6583] | 7.78
AATAATTGCTAAAGGTGTACAATACGTATATAAGAA [XGTACX_site4910] | 7.29
TTAATAACAAAATAAACACACATATATAAATACACA [CACACA_site6849] | 7.03
TTATATTTTTTTTGTAGTACATTATAGAATACACAC [XGTACX_site969] | 7.37
AAATGTTGAAATGATACACACATATATATATATATA [CACACA_site2517] | 9.59
TTTATTAAAACAAAATGTACACACATATAATTTAAT [XGTACX_site1637] | 6.95
TAAATTCTGTTTAAAAGTACAAATAATATTGTGCCT [XGTACX_site7805] | 6.88

Sequence | gcPBM binding intensity (ln)
TTAATCTTCATAAAATGTACAGAAGATTGAATATTC [XGTACX_site6213] | 6.75
TGAAAGTGTATTAAAGTGCATATTATTTTATCTACC [GTGCAC_site9969] | 8.23
ATAATATTTTATAATTGTACTTTTTATAAATATAAA [XGTACX_site1940] | 6.98
CATATTTACATTAAGTGTACTTATGAATATATATAC [XGTACX_site7962] | 7.03
AAAATACATATATATATATATAATATTGTTGTTAAA [GTGCAC_negctrl_site519] | 7.19
ATATTTTTTTTCATTTGTACACATAAAATTATATAG [XGTACX_site8260] | 7.45
TTTTTATTTTTAGTAGTGCATTAATCATATGGTCAT [GTGCAC_site9879] | 8.78
TAAATAAATCCACATACACACACGACGCTAGTATAT [CACACA_site1060] | 6.73
AATATTTTATTTTTTCTCATTAAAAATTTTTTTTTT [CACACA_negctrl_site364] | 6.84
GATAGATAATATTTTAGTACATAAACAATTAAATAT [XGTACX_site4125] | 6.95
ATTATTCGTTTTAAATGTACTCATATAAACGATAAA [XGTACX_site7866] | 7.3
CAAAAGAAGGTAAACACACACACACCCATACAAAAA [CACACA_site3765] | 7
GAGCGTAATCTATTTGCACACTTATTTGTTCTTAAA [CACACA_site673] | 7.13
GTGTATAATATAGGATGTACAATAAAACACCGATTG [XGTACX_site7429] | 7.08
TTGTTTATCAACAGCACACACAACAACAACAACAAC [CACACA_site458] | 7.25
ATAAAAACATAAACAAATCAAAAAAAAAAAAAAAAA [CACACA_negctrl_site13] | 6.85
AAATAATGAAACAAAGTGCATAAAAATATACATATA [GTGCAC_site9467] | 7.75
CATTAAAATATGAGATGTACACAATATCTATTATAT [XGTACX_site4979] | 6.98
ATGGATTATACGTGCACACATATATACCAATAAATA [CACACA_site4524] | 10.5

Sequence | gcPBM binding intensity (ln)
ATTTAAATATCTTCTTTTTTTTTTTTTTTTGAAATT [CACACA_negctrl_site1074] | 6.6
GTGTACAGACACAAAATATATACATATATATATATA [CACACA_negctrl_site1796] | 9.01
TGTTATATGTTCAAATGTACAAATCATATACATGTT [XGTACX_site3192] | 6.86
AATATATAAACCGAACGTACATATTTTTTATACACC [XGTACX_site2121] | 7.08
ATTATTTTCTCATAGAGTACAAATGTTGTTGTTGTC [XGTACX_site1062] | 7.16
TATTTTCATAATAAAAAAAAATAATTTAAAAAATAT [CACACA_negctrl_site748] | 6.75
AATGGCAAAATAGGCACACACACATATACATATATA [CACACA_site1058] | 7.01
TGTGCACATAATTAGTGTACATTTTTTATTTAGACA [XGTACX_site317] | 10.9
AATTATATTTGAAATACACACATAAAAATCATATAG [CACACA_site3468] | 6.91
CTTATTGATTTAAAAAGTACATATATGTATATACAC [XGTACX_site4072] | 7.05
AAAAAAAAAAAAAATACACACATATAAATATAAATA [CACACA_site6189] | 7.3
AGATTTAAATATCATACACACTTTATATATAATACA [CACACA_site4688] | 6.9
TTATATAGGTCATTCATAAATACAGTTTTTAAAAAA [CACACA_negctrl_site1340] | 7.06
ATTTATTTCACAAAAACATGCAGTTTGAAATTGCCA [TGCATGCA_site910] | 6.74
AATTCATTATATATACGTACATATTTCTGTATAAAA [XGTACX_site6371] | 6.91
AAAAAAAAAAGACACACACACACATAAATATAAATA [CACACA_site6215] | 7.18
GCATAAATTATCATAACATAAATATAAAAATATAAT [GTGCAC_negctrl_site55] | 7.03
GATTATTTTATAAGTACACACATTTATATATAATAA [CACACA_site2573] | 7.34
